Measurements published in PMC10933337, “RhoGDI phosphorylation by PKC promotes its interaction with death receptor p75^NTR to gate axon growth and neuron survival” (EMBO Reports, 2024).
Where a chain is given by its changes, count along the chain named. No constants are given. Whether binding was seen depends on the method and setting. In cells and extracts the contact can be indirect. Some entries that bind do so weakly or less than the wild type. Where a sequence is shown, tags or fusion partners need not be part of it.

Chains of the proteins cited; added tags and fusions are not shown.
UniProt P61586: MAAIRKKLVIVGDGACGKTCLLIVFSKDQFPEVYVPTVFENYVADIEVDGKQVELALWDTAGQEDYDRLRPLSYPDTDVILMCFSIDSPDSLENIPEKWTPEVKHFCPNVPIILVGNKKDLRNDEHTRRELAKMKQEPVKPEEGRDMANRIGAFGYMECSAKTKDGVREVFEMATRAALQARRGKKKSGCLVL

Columns and labels:
[1] = target: T1, mouse Flag-RhoGDI S34D (mouse) (UniProt Q99PT1); experiment: co-IP; Flag-RhoGDI constructs and RhoA in NIH3T3 cells, which lack endogenous p75NTR; RhoGDI immunoprecipitates probed for bound RhoA
T1 sequence: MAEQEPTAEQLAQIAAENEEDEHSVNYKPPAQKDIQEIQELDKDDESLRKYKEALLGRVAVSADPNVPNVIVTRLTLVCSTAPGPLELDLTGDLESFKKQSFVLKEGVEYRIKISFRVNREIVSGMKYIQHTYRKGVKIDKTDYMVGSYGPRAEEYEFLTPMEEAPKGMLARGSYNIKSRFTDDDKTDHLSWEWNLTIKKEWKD

[2] = target: T2, mouse Flag-RhoGDI S96A (mouse) (UniProt Q99PT1); experiment: as above
T2 sequence: T1 sequence with D34S, S96A

[3] = target: T3, mouse Flag-RhoGDI wild type, transfected in NIH3T3 cells (mouse) (UniProt Q99PT1); experiment: as above
T3 sequence: T1 sequence with D34S

[4] = target: T4, mouse Flag-RhoGDI S34A (mouse) (UniProt Q99PT1); experiment: as above
T4 sequence: T1 sequence with D34A

[5] = target: T1, mouse Flag-RhoGDI S34D (mouse); experiment: co-IP; as a5, with p75NTR co-expressed in the NIH3T3 cells; Flag-RhoGDI immunoprecipitates probed for bound HA-RhoA
[6] = target: T5, mouse Flag-RhoGDI S34D/S96A double mutant (mouse) (UniProt Q99PT1); experiment: as above
T5 sequence: T1 sequence with S96A

[7] = target: T3, mouse Flag-RhoGDI wild type, transfected in NIH3T3 cells (mouse); experiment: as above

binding [1]: binds
binding [2]: binds
binding [3]: binds
binding [4]: binds
binding [6]: binds
binding [7]: binds
Substance: HA-RhoA (from UniProt P61586 1-193)
binding [5]: no binding (condition: with p75NTR co-expressed)
